# Source: patent US20250264455A1 (HELMHOLTZ ZENTRUM M NCHEN DEUTSCHES FORSCHUNGSZENTRUM F R …, published 2025)
# B1: P2-TmEnc-antimCherry intrabody (LaM-4) (other)
# chain: MSPEDKIAQLKEKNAALKEKNQQLKEKIQALKYGGGGGSGPGEFLKRSFAPLTEKQWQEIDNRAREIFKTQLYGRKFVDVEGPYGWEYAAHPLGEVEVLSDENEVVKWGLRKSLPLIELRATFTLDLWELDNLERGKPNVDLSSLEETVRKVAEFEDEVIFRGCEKSGVKGLLSFEERKIECGSTPKDLLEAIVRALSIFSKDGIEGPYTLVINTDRWINFLKEEAGHYPLEKRVEECLRGGKIITTPRIEDALVVSERGGDFKLILGQDLSIGYEDREKDAVRLFITETFTFQVVNPEALILLKGSGSGSETTGAQVQLVESGGSLVQPGGSLRLSCAASGRFAESSSMGWFRQAPGKEREFVAAISWSGGATNYADSAKGRFTLSRDNTKNTVYLQMNSLKPDDTAVYYCAANLGNYISSNQRLYGYWGQGTQVTVS
# notes: also called P2-TmEnc^antimcherryIB (LaM-4)
# Legend:
# [1] = target: T1, sfGFP-SasG(G51-G52)-mCherry; test: live wide-field fluorescence microscopy and TEM of co-expressing HEK293T cells
# T1 construct: Hetero-bifunctional scaffold: sfGFP, S. aureus SasG G51-E1-G52 (amino acids 419-629), mCherry; also called ~16 nm linker
# [2] = target: T2, sfGFP-SasG-G51-G54-mCherry; test: TEM of co-expressing HEK293T cells
# T2 construct: also called sfGFP-G51-G54-mCherry; ~30 nm linker
binder,measurement,setting,value
B1,binding result,[1],binds
same,binding result,[2],binds
